Laboratory results published in the RNAGym collection of RNA variant scans (doi:10.7554/elife.90254).
Read counts are not given, so values of variants with three or more changes are uncertain.

B1: LINE1-full (parent)
chain: UACGUAGGUGGUUUUCCCCUGAUAGUGCUAAGGGGGCCUGGAAGUUUGGACUGGGCAGAGCUCAACACAGCGUGGCAAAGUGGCUGUGGCUAGACUGCCUCUCUGGAUUCCUCGUCACUCAGCAGGGCAUCUCUGAGAGAAAUGCC

Variants of: B1
Assay: self-cleavage, relative activity (ratio to wild type); higher = more cleavage; in vitro, sequencing; the parent is a self-cleaving ribozyme

Variant	self-cleavage
UACGUAGGUGGUUUCCCCCUGAUAGCGCUAAGGGGGCCUGGAAGUUUGGACUGGGCAGAGCUCAACACAGCGUGGCAAAGUGGCAGUGGCUAGACUGCCUCUCUGGAUUCCUCGUCACUCAGCAGGGCAUCUCUGAGAGAAAUGCC	0.28
UACGUAGGUGGUUUUCCCCUGAUAGUGCUAAGGUGGCCUGGAAGUUUGGACUGGGCAGAGCACAACACAGCGUGGCAAAGUGGCUGUGGCUAGACUGCCUCUCUGGAUUCCUCGCCACUCAGCAGGGCAUCUCUGAGAGAAAUGCC	0.02
UACGUAGGUGGCUCUCCCCUGAUAGAGCUAAGGGGGCCUGGAAGUUUGGACUGGGCAGAGCUCAACACAGCGUGGCAAAGUGGCUGUGGCUAGACUGCCUCUCUGGAUUCCUCGUCACUCAGCAGGGCAUCUCUGAGAGAAAUGCC	0.6
UACGUAGGUGGGUUUCCCCUGAUAGUGCUAAGGGGGCCUGGAAGUUUGGACUGGGCAGAGCCCAACACAGCGUGGCAAAGUGGCUGUGGCUAGACUGCCUCUCUGGAUUCCUCGUCACUCAGCAGGGCAUCUCUGAGAGGAAUGCC	0.34
UACGUAGGUGGUCUUCCCCUGCUAGUGCCAAGGGGGCCUGGAAGUUUGGACUGGGCAGAGCUCAACCCAGCGUGGCAAAGUGGCUGUGGCUAGACUGCCUCUCUGGAUUCCUCGUCACUCAGCAGGGCAUCUCUGAGAGAAAUGCC	0
UACGUAGGUGGUUUUCCCCUGAUGGUGCUAAGGGGGCCUGGAAGCUUGGACUGGGCAUAGCUCAACACUGCUUGGCAAAGUGGCUGUGGCUAGACUGCCUCUCUGGAUUCCACGUCACUCAGCAGGGCAUCUCUGAGAGAAAUGCC	0.02
UACGUAGGUGGUUUUCCCCUGAUAGUGCUAAGGGGGCCUGGAAGAUUGGACUGGGCAGAGCUCAACACAGCGUGGCAAAGUGGCUGAGGCUAGACUGCCUCUCUGGAUUCCUCGUCACUCAGCAGGGCAUCUCUGAGAGAGAUGCC	0.04
UACGUAGGUGGUUUUCCCCUGAUAGUGCUGACGGGGCCUGGAAGUUUGGACUGGGCAGAGCUCAACACAGCGUGGCGAAGUGGCUGAGGCUAGACUGCCUCUCUGGAUUCCUCGUCACUCAGCAGGGCAUCUCUGAGAGGAGUGCC	0
UACGUAGGUGGUUUUCCCCUGAUAGUGCUAAGGGGGCCUGGAAGUUUGGACUGGGCAGAGCUCAACACAGCGUGGCAAAGUGGCUGUGGCUGGACUGCCACUCUGGAUUCCUCGUCUCUCAGCAGGGCAUCUCUGAGAGAAAUGCC	0.12
UACGUAGGUGGUUUUCCCCUGAUAGUGCUAAGGGGGCCUGGAAGUUUGGACUGGGCAGAGCUCAACACAGCGUGGCAAAGUGGCUGUGGCUAGACUGCCUCUCUGGACUCCUCGUCACUCAGCAGGGCAUCUCUGCGAAAAAUGCC	1.36
UACGUAGGUGGUUUACCCCAGAUAGUGCUAAGGGGGCCUGGAAGUUUGAACUGGGCAGAGCUCAACACGGCGUGGCAAAGUGGAUGUGGCUAGACUGCCUCUCUGGAUUCCUCGUCACCCAGCAGGGCAUCUCCGAGAGAAAUGCC	0.03
UACGUAGGUGGUUUUCCCCUGAUAGUGCUAAGGGGGCCUGGAAGUUUGGACUGGGCAGAGCCCAACACAGCGUGACAAAGUGGCUGUGGCUAGACCGCCUCUCUGGAUUCCUCGUCACUCAGCAGGGCAUCUCUGGGAGAAAUGCC	0
UACGAAGGUGGUUUUCCCCUGAUAGUGCUAAGGGGGCCUGGAAGUUUGGACUGGGCAGAGCUCAACACAGCGUGGCAAAGUGGCUGUGGCUAGACUGCCUCUCUGGAUUCCUCGUCACUCAGCUGGGCAUCUCUGGGAGAAAUGCC	1.27
UACGUAGGUGGUUUUCCCCUGAUAGUGCUAAGGGGGCCUGGGAGUUUGGACUGGGCAGAGCUCAACACAGCGUGGCAAGGUGGCUGUGGCUAGACUGCCUCUCAGGAUUCCUCGUCACUCAGCAGGGCAUCUCUGAGAGAAAUGCC	0
CACGUAGGAGGUUUCCCCCUGAUAGUGCUAAGGGGGCCUGGAAGUUUGGACUGGGCAGAGCUCAACACAGCGUGGCAAAGUGGCUGUGGCUAGACUGCCUCUCUGGAUUCCUCGUCACUCAGCAGGGCAUCUCUGAGAGAAAUGCC	0.76
UACGUAGGUGGUUUUCCCCUGGUAGUGCUAAGGGGGCCUGGAAGUUUGGACUGGGCAGAGCUCAACACAGCGUGGCAGAGUGGCUGUGGCUGGACUGCCUCUCUGGGUUCCUCGUCACUCAGCAGGGCAUCUCUGAGAGAAAUGCC	0
UACGUAGGUGGUUUUCCCCUGAUAGUGCUAAGGGGGCCUGGAAGUUUGGGCUGGGCAGAGCUCAACACGGCGUGGCAAAGUGGCUGUGGCUAGACUGCCUCCCUGGAUUCCUCGUCACUCAGCAGGGCAUCUCUGAGAGAACUGCC	0
UACGUAGGUGGUUUUCCCCUGAUAGUGCCAAGGGGGCCUGGAAGUUUGGACUGGGCAGAGCUCAACACAGCGUGGCAAAGUGGCCGUGGCUAGACUGCCUCUCUGGAUUCCUCGUCGCUCAGCAGGGCAUCUCUGAGAGAAAUGCC	0.73
UACGUAGGUGGUUUUCCCCUGAUAGAGCUAAGGGGGCCUGGAAGUUUGGACUGGGCAGAGCUCAACACAGCGUGGCUAAGUGGCUGUGGCUAGACUGCCUCUCUGGAUUCCUCGUCACUCAGCAGGGCAUCUCUGAGAGGAAUGCC	0.38
UACGUAGCUGGUUUUCCCCUGAUAGUGCUAAGGGGGCCUGGGAGUUUGGACUGGGCAGAGCUCAACACAGCGUGGCAAAGUGGCUGUGGCUAGACUGCCUCUCUGGAUUCCUCGUCACUUAGCAGGGCAUCUCUGAGAGAAAUGCC	1.27

Variant	self-cleavage
UACGUAGGUGGUUUACCCCUGAUAGUGCUAAGGGGGCCUGGAAGUUAGGACUGGGCAGAGCUCAACACAGCGUGGCAAAGUGGCUGUGGCUAGACUGCCUCUCUGGAUUCCUCGUCACUCAGCAGGGCAUCUCUGUGAGAAAUGCC	1.08
UACGUAGGUGGUUUUCCCCUGAUGGUGCUAAGGGGGCCAGGAAGUUUGGACUGGGCAGAGCUCAACACAGCGGGGCAAAGUGGCUGUGGCUAGACUGCCUCUCUGGAUUCCUCGCCACUCAGCAGGGUAUCUCGGAGAGAAAUGCC	1.6
UACGUAGGUGGUUUUCCCCUGAUAGUGCUAGGGGGGCCUGGAAGUUUGGACUCGGCAGAGCUCAACACAGCGUGGCAAAGUGGCUGUGGCUAGACCGCCUCUCUGGAUUCCUCGUCACUCAGCAGGGCAUCUCUGAGAGAAAUGCC	0.19
UACGUAGGUGGUUUUCCCCUGAUAGUGCUAAGGGGGCCAAGAAGUUUGGACUGGGCAGAGCUCAACACAGCGUGGCAAAGUGGCUGUGGCUAGACUGCCUCUCUGGAUUCCUCGUCACUCAGCAGGGCAUCUCUGAGAGGAAUGCC	1.22
UACGUAGGUGGUUUUCCCCUGAUAGUGCUAAGGGGGCCUGGAAGUUUGGACUGGGCAGAGCUCCAAACAGCGUGGCAAAGAGGCUGUGGCUAGACUGCCUCUCUGGAUUCCUCGUCACUCAGCAGGGCAUCUCUGAGGGAAAUGCC	0.02
UACGUAGGUGGUUUUCCCCUGAUAGUGCUAAAGGGGCCUGGAGGUUUGGACUGGGCAGAGCUCAACACUGCGUGGCAAAGUGGCUGUGGCUAGACUGCCUCUCUGGAUUCCUCGUCACUCAGCAGGGCAUCUCUGAGAGAAAUGCC	0
UACGUAGGUGGUUUUCCCCCGAUAGUGCUAAGGGGGCCUGGAAGUUUGGACUGGGCAGAGCUCAACACAGCGUGGCAAAGUGGCAGUGGCUGGACUGCCUCUCUGGAUUCCUCGUCACCCAGCAGGGCAUCUCUGAGAGAAAUGCC	0
UACGUAGGUGGUUUUCCCCUGAUAGUGCUAAGGGGGCCUGGAAGUUAGGACUGGGCAGAGCUCAGCACAGCCUGGCAAAGUGGCUGUGGCUAGACUGCCUCUCUGGAUUCCUCGUCACUCAGCAGGGCAUCUCUGAGAGAAAUGCC	0.02
UACGUAGGUGGUUUUCCCCUGAUAGUGCUAAGGGGGCCUGGAAGUUUGGACUGGGCGGAGCUCAACACAGCGUGGCAAAGUGGCUGUGGCUAGACCGCCUCUCUGGAUUCCUCGUCACUCAGCAGGGCAUCUCUGAGAGAGAUGCC	2.45
UACGUAGGUGGUUUUCCCCUGAUAGUGCUAAGGGGGCCUGGAGGUUUGGACUGGGCAGAGCUCAACACUGCGUGGCAAAGUGGCUGUGGCUAGAUUGCCUCUCUGGAUUCCUCGUCACUCAGCAGGGCAUCUCUGAGAGAAAUGCC	0
UACGUAGGUGGUUUUCCCCUGAUAGUGCUAAGGGGGCCUGGAGGUUUGGACUGGGCAGAGCUCAACACAGCGCGGCAAAGUGGCUGUGGCUAGACUGCCUCUCUGGAUUCCUCGUCACUCAGCAGGGCAUCUCUGGGAGAAAUGCC	2.42
UACGUAGGUGGUUUUCCCCUGAUAGUGCUAAGGGGGCCUGGAAGUUUGGACUGGGCAGAGCUCAACACAGCGUGGCAAAGUGGCUGUGGCUAGACAGCCUCUCUGGAUUCCUCGUCACUCAGCAGGGCAUCUUUGAGAGAGAUGCC	0.11
UACGUACGUGGUUUUCCCCUGAUAGUGCUAAGGGGGCUUGGAAGUUUGGACUGGGCAGAGCUCAACACAGCGUGGCAAAGUGGCUGUGGCUAGACUGCCUCUCUGGAUUCCUCGUCACUCGGCAGGGCAUCUCUGAGAGAAAUGCC	0.81
UGCGUAGGUGGUUUUCCCCUGAUAGUGCUAAGGGGGCCUGGAAGUUUGGACUGGGCAGAGCUCAACACAGCGUGGCAAAGUGGCUGUGGCUAGGCUGCCUCUCUGGAUUCCUCGUCACUCAGCAGGGCAUCUCUGUGAGAAAUGCC	0.68
UACGUAGGUGGUUUUCCCCUGAUAGAGCUAAGGGGGCCUGGAAGUUUGGACUGAGCAGAGCUCAACACAGCGUGGCAAAGUGGCUGUGGCUAGGCUGCCUCUCUGGAUUCCUCGUCCCUCAGCAGGGCAUCUCUGAGAGAAAUGCC	0.12
UACGUAGGUGGUUUUCCCCUGAUAGUGCUAAGGGGGCCUGGAAGUAUGGACUGGGCAGAGCUCAACACAGCGUGGCAAAGUGGCUGUGGCUAGACUGCCUCUCUGGAUUCCUCGUCACUCAGCAGGGCACCUCUGAGAGGAAUGCC	1.49
UACGUAGGUGGUUUUCCCCUGAUGGUGCUUAGGGGGCCUGGAAGUUUGGACUGGGCAGAGCUCAACACAGCGUGGCAAAGUGGCUGUGGCUAGACUGCCUCUCUGGAUUCCUUGUCACUCAGCAGGGCAUCUCUGAGAGAAAUGCC	0.72
UACGUAGGUGGUUUUCCCCUGAUAGUGCUAUGGGGGCCUAGAAGUUUGGACUGGGCAGAGCUCAACACAGCGUGGCAAAGUGGCUGUGGCUAGACUGCCUCUCUGGAUUCCUCGUCACUCAGCAGGGCAUCUCUGGGAGAAACGCC	1.29
UACGUAGGUGGUUUUCCCCUGAUAGUGCUAAGGGGGCCUGGAAGUUUGGACUGGGCAGAGCUCAACACAGCGUGGCAAAGAGGCAGUGGCUAGACUGCCUCUCUGGACUCCUCGUCACUCAGCAGGGCAUCUCUGAGAGAAAUGCC	0.14
